Test results published in PubChem BioAssay AID1460 (National Center for Advancing Translational Sciences (NCATS), 2008).
Hit rate of the full screen: of about 270,000 compounds, about 5,800 (2.1%) were called active. Inconclusive means that the source gave no clear call. Such entries were picked first, then a sample of the others. The call rests on the fitted dose curve; in most records, active means well fitted inhibition curve with a large enough effect; inconclusive means small, poorly fitted or top-dose-only effect; inactive means flat fitted curve, though single readings scatter. Potencies beside an inconclusive call are fits to weak or partial responses and may not hold up.

These compounds were tested against Microtubule-associated protein tau (Homo sapiens) (UniProt P10636) (assay: qHTS for Inhibitors of Tau Fibril Formation, Thioflavin T Binding). Conditions: recombinant tau K18 P301L (four-repeat tau fragment), heparin-induced fibrillization, ThT fluorescence; series mostly up to 57.4 µM.
Procedure, shortened: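 Aggregation was driven by heparin (20 uM final) acting on recombinant tau […] bearing P301L in 100 mM sodium acetate pH 7; fibrils were detected with Thioflavin T.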
Further: nearly all actives have a fitted effect of over 55% in size.
Potency means the concentration at half of the fitted maximal effect; tags describe the fitted curve by direction and shape.

Sequence of UniProt P10636 (P10636 whole entry, looked up, the tested form may be a part): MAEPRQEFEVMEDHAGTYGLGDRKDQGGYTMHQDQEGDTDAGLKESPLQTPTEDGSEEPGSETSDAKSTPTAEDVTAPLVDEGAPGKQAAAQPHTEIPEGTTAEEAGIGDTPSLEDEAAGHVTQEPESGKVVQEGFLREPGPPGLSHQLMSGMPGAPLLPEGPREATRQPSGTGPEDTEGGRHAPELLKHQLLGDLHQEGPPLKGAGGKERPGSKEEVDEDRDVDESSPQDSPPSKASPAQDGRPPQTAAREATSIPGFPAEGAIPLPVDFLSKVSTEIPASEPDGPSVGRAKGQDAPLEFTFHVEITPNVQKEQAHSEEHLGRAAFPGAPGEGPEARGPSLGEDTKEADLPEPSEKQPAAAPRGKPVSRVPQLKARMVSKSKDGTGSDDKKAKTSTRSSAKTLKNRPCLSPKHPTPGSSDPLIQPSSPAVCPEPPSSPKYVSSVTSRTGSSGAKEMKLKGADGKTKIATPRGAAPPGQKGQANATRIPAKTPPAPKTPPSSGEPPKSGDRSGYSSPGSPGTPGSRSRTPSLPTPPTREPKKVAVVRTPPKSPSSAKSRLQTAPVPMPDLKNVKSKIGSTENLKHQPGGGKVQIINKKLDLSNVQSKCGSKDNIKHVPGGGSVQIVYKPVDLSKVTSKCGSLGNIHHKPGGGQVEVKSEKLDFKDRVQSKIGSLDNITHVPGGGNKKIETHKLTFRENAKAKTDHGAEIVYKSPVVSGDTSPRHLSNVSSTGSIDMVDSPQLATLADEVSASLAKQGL

SMILES | Potency
O=c1c2cn[nH]c2[nH]c(=S)n1-c1ccccc1Cl | inactive
O=C1CSC(c2ccc(Cl)cc2)N1C1CCCCC1 (stereo unspecified) | inactive
CSc1ccc(CCNC(=O)c2ccc3c(c2)nc2n3CCC(C)C2)cc1 (stereo unspecified) | inconclusive: 1.41 µM [inhibitor, full curve]
O=C(NNc1ccc([N+](=O)[O-])cc1)C1CC1c1ccccc1 (stereo unspecified) | inconclusive: 15.8 µM [inhibitor, partial curve]
Nc1ccc(C(=O)NCC(=O)O)cc1 | active: 31.6 µM
NC(=S)N/N=C/c1ccc(-c2ccc(Cl)c(Cl)c2)o1 | inconclusive: 3.98 µM [inhibitor, partial curve]
COc1cc([N+](=O)[O-])ccc1N/C=C/C(=O)c1cccs1 | inconclusive: 0.562 µM [inhibitor, full curve]
Cc1cccc(C(=O)Nc2nc3c(s2)CCCC3)c1 | inconclusive: 15.8 µM [inhibitor, single point]
Cc1cccc(N2CCN(C(=O)CCNS(=O)(=O)c3ccc4c(c3)CCN4C(=O)C3CC3)CC2C)c1 (stereo unspecified) | inconclusive: 12.6 µM [inhibitor, partial curve]
Cc1cc(SCC(=O)N/N=C/c2cccnc2)nc2c(C)cccc12 | inconclusive: 20 µM [inhibitor, single point]
Cc1ccc2nc(-c3ccc(N4CCOCC4)cc3)c(Nc3ccccc3C)n2c1 | inconclusive: 7.94 µM [inhibitor, partial curve]
CCCc1cc(=O)[nH]c(SCC(=O)C(C)(C)C)n1 | inactive
CCOc1ccc(NC(=O)COc2ccccc2)c([N+](=O)[O-])c1 | inconclusive: 12.6 µM [inhibitor, partial curve]
COc1ccc(/C=N/NC(=O)Cn2c(Cc3ccc(OC)c(OC)c3)nc3ccccc32)cc1OC | inactive
C#CCOCCOCCOCCNc1nc(N2CCN(C(=O)[C@H]([C@@H](C)CC)n3cc([C@@H](N)Cc4ccc(O)cc4)nn3)CC2)nc(N2CCN(C(=O)[C@H](Cc3ccc(O)cc3)n3cc([C@@H](N)CC(C)C)nn3)CC2)n1 | inconclusive: 22.4 µM [inhibitor, single point]
O=C(/C(C=Nc1cccc(C(F)(F)F)c1)=C(/O)c1ccco1)C(F)(F)F | inactive
CCOc1ccc(NC(=O)C(C)SC(N)=O)cc1 (stereo unspecified) | inconclusive: 15.8 µM [inhibitor, partial curve]
COc1cc(NC(=S)NCCc2ccccc2)c(OC)cc1NC(=O)CC(C)C | inconclusive: 35.5 µM [inhibitor, partial curve]
CC(=O)/C(=N/Nc1ccccc1)Sc1nnc(C(O)c2ccccc2)n1-c1ccccc1 (stereo unspecified) | inactive
CCOC(=O)c1cc(-c2ccco2)nc2c1c(C)nn2CCC#N | inconclusive: 31.6 µM [inhibitor, single point]
CC1(c2nnc(-c3ccc(F)cc3)o2)CC(c2cccc(Cl)c2)=NO1 (stereo unspecified) | inactive
CN1CCN(C(=S)C(=O)Nc2ccc(Br)cc2)CC1 | inconclusive: 25.1 µM [inhibitor, single point]

SMILES | Potency
COc1ccc(-n2nc3c(N4CCCC(C(=O)NCc5ccccc5C)C4)nnc(C)c3c2C)cc1 (stereo unspecified) | inconclusive: 25.1 µM [inhibitor, single point]
O=C(NCCn1cc(SCc2ccc(C(F)(F)F)cc2)c2ccccc21)c1cccs1 | inconclusive: 6.31 µM [inhibitor, full curve, poor fit]
CC(=O)[C@@H]1[C@@H](C(=O)c2ccc(C)cc2)[C@]2(C(=O)Nc3ccccc32)[C@H]2C=Cc3cc(F)ccc3N12 | active: 14.1 µM
O=C(Nc1ccc2c(c1)CCC2)c1ccc(Br)o1 | inconclusive: 14.1 µM [inhibitor, partial curve]
CCOC(=O)c1c(NC(=O)c2cc(=O)c3c(C)cc(C)cc3o2)sc(C)c1C | inactive
Cc1ccc(NC(=O)Cc2ccc(-n3cccc3)cc2)c(C)c1 | inactive
CC(=O)Nc1ccc2nc(-c3ccccc3)cn2c1 | inactive
FC(F)(F)c1nnc(-c2ccccc2)nc1Oc1ccc(Cl)cc1Cl | inconclusive: 31.6 µM [inhibitor, single point]
CCCCC(C)(O)C/C=C/[C@H]1[C@H](O)CC(=O)[C@@H]1CCCCCCC(=O)OC (stereo partly specified) | inconclusive: 20 µM [inhibitor, partial curve]
O=[N+]([O-])c1ccc(OCc2cnc(Cl)s2)c([N+](=O)[O-])c1 | inconclusive: 15.8 µM [inhibitor, partial curve]
Cc1ccccc1N1C(=O)CC(c2c[nH]c3ccccc23)C1=O (stereo unspecified) | inactive
O=C(c1ccco1)N1CCN(C(=O)C2CCCc3c2[nH]c2ccc(Cl)cc32)CC1 (stereo unspecified) | inconclusive: 35.5 µM [inhibitor, single point]
Cc1ccc(NC(=O)Nc2csc3c2CCCC3)c(C)c1 | inconclusive: 0.794 µM [inhibitor, full curve]
COc1ccc(-n2cc(-c3ccccc3)nc2SC)cc1 | inconclusive: 15.8 µM [inhibitor, partial curve]
CCC1(O)CC2CN(CCc3c([nH]c4ccccc34)[C@@](C(=O)OC)(c3cc4c(cc3OC)N(C)C3[C@]45CCN4CC=C[C@@](CC)([C@@H](OC(C)=O)[C@]3(O)C(=O)OC)[C@H]45)C2)C1 (stereo partly specified) | inconclusive: 11.2 µM [inhibitor, partial curve]
O=P(c1ccccc1)(c1ccccc1)c1nc(-c2ccccc2)oc1NCc1ccccc1 | inconclusive: 35.5 µM [inhibitor, single point]
O=C(c1ccc(N2CCCC2)c([N+](=O)[O-])c1)N1CCN(c2ccccn2)CC1 | inconclusive: 22.4 µM [inhibitor, partial curve]
COc1cc(/C=C2\COC/C(=C\c3cc(OC)c(OC)c(OC)c3)C2=O)cc(OC)c1OC | active: 8.91 µM
Cc1[nH]c2ccccc2c1C1(O)C(=O)N(Cc2ccccc2)c2ccc(Br)cc21 (stereo unspecified) | inconclusive: 22.4 µM [inhibitor, partial curve]
Cc1ccc(NC(=S)NNC(=S)NC2CCCCC2)cc1 | inconclusive: 20 µM [inhibitor, partial curve, poor fit]
COC(=O)C(NNc1ccccc1)(NC(=O)c1ccc(F)cc1)C(F)(F)F (stereo unspecified) | inconclusive: 28.2 µM [inhibitor, partial curve]
Cc1noc(C)c1-c1nnc(-c2ccc(OC(F)(F)F)cc2)o1 | inactive

SMILES | Potency
O=C(C1CCN(c2nnnn2-c2ccccc2)CC1)N1CCN(c2ccccc2)CC1 | inactive
CC(C)(C)c1cc(CNC2CS(=O)(=O)C[C@@H]2O)cc(C(C)(C)C)c1O (stereo partly specified) | inconclusive: 17.8 µM [inhibitor, single point]
CCOc1ccc(NC(=O)CSc2oc(-c3ccco3)nc2S(=O)(=O)c2ccc(Cl)cc2)cc1 | inconclusive: 25.1 µM [inhibitor, partial curve, poor fit]
CC1=C(C#N)c2nc(N)c(C#N)c(C)c2/C1=C\c1ccc(-c2ccccc2C(=O)O)o1 | active: 8.91 µM
COc1cccc(C2C=C(c3ccc(C)cc3)Nc3c(C(=O)Nc4ccc(F)cc4)cnn32)c1OC (stereo unspecified) | inconclusive: 25.1 µM [inhibitor, single point]
CCn1c2ccccc2c2nc3cc(C(=O)O)ccc3nc21 | inconclusive: 15.8 µM [inhibitor, partial curve]
CC1=C(C)CC(C(=O)Nc2nc(-c3ccc(C)cc3C)c(C)s2)C(C(=O)O)C1 (stereo unspecified) | inconclusive: 39.8 µM [inhibitor, single point]
COc1ccccc1Nc1nc(-c2sc(NC(=O)c3ccc([N+](=O)[O-])cc3)nc2C)cs1 | active: 3.55 µM
NC(=O)Cn1c(=O)n(CCc2ccccc2)c(=O)c2c3c(sc21)CCCC3 | inactive
CCc1ccc(NC(=O)c2sc3nc(-c4ccccc4)cn3c2C)cc1 | inconclusive: 2 µM [inhibitor, full curve, poor fit]
CCN1CCN(C(c2cccc(OC)c2)c2c(O)cc(C)n(Cc3ccco3)c2=O)CC1 (stereo unspecified) | inconclusive: 10 µM [inhibitor, partial curve, poor fit]
CCOC(=O)N1CCc2c(sc(NCc3ccc(N(C)C)cc3)c2C(=O)Nc2ccccc2OCC)C1 | inconclusive: 14.1 µM [inhibitor, partial curve]
Nc1ccc2nc(-c3ccc(Cl)cc3)[nH]c2c1 | active: 14.1 µM
O=C(CSc1nc2ccccc2o1)c1cc2ccccc2oc1=O | inconclusive: 20 µM [inhibitor, partial curve]
CCN(CC)CCN1C(=O)c2oc3ccccc3c(=O)c2C1c1ccc(F)cc1 (stereo unspecified) | inactive
O=C1CCN(C(=O)Nc2cccc(Cl)c2)N1 | inconclusive: 25.1 µM [inhibitor, single point]
CNc1oc(-c2ccc(OCc3ccccc3)cc2)nc1C#N | inconclusive: 31.6 µM [inhibitor, partial curve]
COc1ccc(-n2cnnc2SCC(=O)N2CCN(c3ccccc3)CC2)cc1 | inconclusive: 31.6 µM [inhibitor, partial curve]
O=C(/C=C/c1ccc(Br)cc1)NC(=S)NNC(=O)c1ccco1 | active: 15.8 µM
CCOC(=O)C(C)N1C(=O)S/C(=C/c2cc(C)n(-c3ccncc3)c2C)C1=O (stereo unspecified) | inconclusive: 31.6 µM [inhibitor, single point]
COc1ccccc1NCC(O)Cn1c2ccccc2c2ccccc21 (stereo unspecified) | inconclusive: 15.8 µM [inhibitor, partial curve]
COc1ccccc1Nc1nn2c(=O)c3ccc(C(=O)NC4CCCCC4)cc3nc2s1 | inactive
